# Test results taken from PubChem BioAssay AID1745853 (National Center for Advancing Translational Sciences (NCATS), 2022).
# The other results are listed elsewhere or left out. These are further read-outs of the screen, such as a control signal, another cell line or another target. No call is given for them. Square brackets hold non-standard residues; d marks the D form. Peptide text beside a SMILES is read from it.
# Columns and labels:
# Assay in all cases: Primary Screen for Target Class Profiling of Small Molecule Inhibitors of Methyltransferases
# [1] = biological target: Glycine N-methyltransferase (Homo sapiens) (UniProt Q14749); settings: purified enzyme, MTase-Glo SAH luminescence; measured here: GNMT inhibition; at 40 µM; stronger effect = lower value
# In short: (§1)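 Each enzyme was assayed with SAM and its substrate. SAH formation detected by MTase-Glo luminescence; single-point 40 uM screen[…].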
# [2] = biological target: Guanidinoacetate N-methyltransferase (Homo sapiens) (UniProt Q14353); settings: purified enzyme, MTase-Glo SAH luminescence; measured here: GAMT inhibition; at 40 µM; stronger effect = lower value
# In short: as §1
# [3] = biological target: Histamine N-methyltransferase (Homo sapiens) (UniProt P50135); settings: purified enzyme, MTase-Glo SAH luminescence; measured here: HNMT inhibition; at 40 µM; stronger effect = lower value
# In short: as §1
# [4] = biological target: Nicotinamide N-methyltransferase (Homo sapiens) (UniProt P40261); settings: purified enzyme, MTase-Glo SAH luminescence; measured here: NNMT inhibition; at 40 µM; stronger effect = lower value
# In short: as §1
# [5] = biological target: Phenylethanolamine N-methyltransferase (Homo sapiens) (UniProt P11086); settings: purified enzyme, MTase-Glo SAH luminescence; measured here: PNMT inhibition; at 40 µM; stronger effect = lower value
# In short: as §1
# % is scaled to controls: 0 for no effect and ±100 for the full control effect.
SMILES,"activity change, negative = inhibition [1] [%]","activity change, negative = inhibition [2] [%]","activity change, negative = inhibition [3] [%]","activity change, negative = inhibition [4] [%]","activity change, negative = inhibition [5] [%]"
O=C(CCc1ccccc1)NCC(=O)N1CCN(c2ccccn2)CC1,-1.42,0.804,0.453,-0.106,4.86
C=C1C(=O)O[C@@H]2C[C@]3(C)[C@@H](CCC(C)O)[C@@H]3C[C@H]12 (stereo partly drawn),1.04,1.03,10.4,-11.1,-5.56
O=c1c2ccccc2n2c(-c3ccc(Br)cc3)nnc2n1Cc1ccc(F)cc1,0.289,0,10.5,4.39,3.91
C=C1CCC2[C@](C)(CO)C(O)CC[C@]2(C)C1C/C=C1/C(=O)OCC1O (stereo partly drawn),,3.19,,-6.8,-43.6
CCC(C)NC(=O)c1ccc2c(=O)n(CC(C)C)c3nn(Cc4ccccc4Cl)c(=O)n3c2c1 (stereo not drawn),-4.33,-3.09,-1.05,-5.3,-5.88
O=C(Nc1ccnc(NC(=O)C2CC2)c1)c1c(Cl)cccc1Cl,0.457,0.701,8.93,-18.7,0.272
COCCN1CCCC2(CCN(c3ccc4ccccc4n3)C2)C1=O (stereo not drawn),-0.106,0.066,-11.1,-6.16,7.22
COc1ccccc1-n1nc(Cc2ccccc2)n(CC(=O)NC(C)C2CC2)c1=O (stereo not drawn),-2.99,-3.91,-1.59,-1.43,-3.18
O=C(CCc1ccc2c(c1)CNCCO2)NCC1CC1,-0.088,1.53,1.55,0.108,-2.21
CC1CCN(S(=O)(=O)c2ccc3c(ccn3CCC(=O)NCc3ccccc3Cl)c2)CC1,4.09,4.33,3.76,-3.16,-0.277
CC(C)Cn1c(=O)c2ccccc2n2c(=O)n(CC(=O)c3ccc(F)cc3)nc12,5.58,0,12.9,6.32,9.18
CC(=O)N[C@H](Cc1ccc(O)cc1)C(=O)N[C@H](CCCN=C(N)N)C(=O)N[C@H](Cc1ccccc1)C(N)=O (Ac-[dY]-[dR]-[dF]-NH2),-2.35,-7.38,5.02,-11.7,0.575
CC(C)CCn1c(=O)c2ccccc2n2c(CCC(=O)NC3CCN(Cc4ccccc4)CC3)nnc12,-1.26,1.56,-18.9,-7.76,2.09
O=C(O)c1ccc(CCCc2ccc(OCCc3ccc(F)cc3)cc2)o1,-14.8,-8.69,7.38,-42.2,-2.24
COc1cc(Nc2nc3c(s2)CCCC3c2ccc(F)cc2)ccc1-n1cnc(C)c1 (stereo not drawn),-3.52,-29.2,-12.2,-43.7,-21.1
CC(C)Oc1ccc(C2(C(=O)N3C[C@@H](C)[C@](O)(C4CC4)C3)CCCC2)cc1,-4.41,-2.24,-0.09,-6.74,-2.2
CC(C)CCn1c(=O)c2ccccc2n2c(SCC(=O)Nc3cccc(Cl)c3)nnc12,-3.11,0.622,2.57,-3.73,0.919
CCOCc1nc2c(N)nc3ccccc3c2n1CC(C)(C)O,5.33,2.29,4.23,-11.7,0.368
Cc1cccc2c1CC[C@H](CN1CCC(c3c(Cl)cccc3Cl)CC1)C[C@@H]2O,0.381,-7.9,-3.04,-21.4,-14.3
CC1CCCCN1C(=O)Cn1c(=O)oc2cc(S(=O)(=O)N3CCCC3)ccc21 (stereo not drawn),-0.421,0,0.635,7.05,-2.4
NCCNS(=O)(=O)c1cccc2c(Cl)cccc12,-4.57,5.69,-0.04,-7.39,8.84
Cc1ccc(N2C(=S)N[C@H]3[C@@H](O)[C@H](O)C[C@@H](C(=O)N4CCCCC4)[C@H]32)cc1,-1.87,0.545,-10.6,2.46,1.61
CC1(C(=O)NCc2ccc(F)cc2)Cn2cnc(C(=O)NCCc3ccco3)c2C(=O)N1C1CC1 (stereo not drawn),2.04,2.55,14.3,5.5,9.84
Cc1nn(C)c2c1C(c1ccc(C(F)(F)F)cc1)C(C#N)=C(N)O2 (stereo not drawn),-7.85,-10,-0.413,-25,-10.8
Nc1ncnc2c1ncn2[C@@H]1O[C@H](COP(=O)(O)CP(=O)(O)OP(=O)(O)O)[C@@H](O)[C@H]1O,-2.75,11.3,2.35,-2.13,4.7
CC(=O)O[C@H]1CC(C)(C)CC2[C@@]13[C@H](O)C[C@]1(C)[C@@]2(CCC2[C@@]4(C)CC[C@H](O[C@@H]5OC[C@H](O[C@@H]6O[C@H](CO)[C@@H](O)[C@H](O)[C@H]6O[C@@H]6OC[C@@H](O)[C@H](O)[C@H]6O)[C@H](O)[C@H]5O[C@@H]5O[C@H](CO)[C@@H](O)[C@H](O)[C@H]5O)C(C)(C)C4CC[C@]21C)O[C@@H]3O (stereo partly drawn),3.14,1.27,6.69,-5.82,4.64
CC(C)CCn1c(=O)c2ccc(C(=O)NCC(C)C)cc2n2c(=O)n(Cc3ccc(Cl)cc3)nc12,3.38,2.5,8.75,1.17,6.31
COc1cc2c(cc1CN1CCCC(O)(CN(C)C)C1)OCCCO2 (stereo not drawn),0.371,0.894,1.2,-4.79,2.23
